A collection of fitness landscapes (doi:10.1038/s41467-024-54723-y)
Over roughly 18,000 sequences, “TetR repression strength (sort-seq, GFP reporter)” has its median near 0.23; the highest 2% begin near 0.68. The list shows a part of the results.

Each sequence was assayed against TetR (class B, Tn10) (UniProt P04483) (assay: TetR repression strength (sort-seq, GFP reporter) (relative to tetO2 = 1); higher = stronger repression). Conditions: E. coli.
Summary of the method: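 In LB with 50 µg/mL chloramphenicol, E. coli SIG10-MAX holding a low-copy library with eight randomized operator positions between a constitutive promoter and sfGFP, plus constitutive TetR, grew for 5 h at 37 °C. FACS then sorted 10^6 cells into 13 fluorescence bins for Illumina sequencing of each bin. Repression strength equals the top bin index plus one less the read-weighted mean bin, normalized to the unaltered operator. Values from three independent transformations were averaged when reads were ≥30 in every replicate and the CV was ≤0.5.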

Sequence of UniProt P04483 (P04483 whole entry): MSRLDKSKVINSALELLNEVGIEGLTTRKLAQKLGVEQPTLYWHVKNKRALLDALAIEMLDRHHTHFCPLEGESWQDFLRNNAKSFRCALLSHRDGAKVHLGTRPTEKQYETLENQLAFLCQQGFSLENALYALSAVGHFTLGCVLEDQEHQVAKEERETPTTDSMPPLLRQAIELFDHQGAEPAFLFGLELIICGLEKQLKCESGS

| Sequence | TetR repression strength |
| --- | --- |
| TCCCCGTGAGTGGAAGAGA | 0.227 |
| TCCCCGCTAGTTAGAGAGA | 0.2 |
| TCCCTGGTAGTTGGAGAGA | 0.24 |
| TCCCGCTGAGTATCAGAGA | 0.288 |
| TCCCTCGAAGTGTCAGAGA | 0.0462 |
| TCCCAGAAAGTGATGGAGA | 0.257 |
| TCCCGTTGAGTTGGCGAGA | 0.122 |
| TCCCTATCAGTAGTGGAGA | 0.434 |
| TCCCACTGAGTTCCAGAGA | 0.207 |
| TCCCGTGTAGTGAGGGAGA | 0.487 |
| TCCCCTATAGTTTCGGAGA | 0.238 |
| TCCCACCTAGTACTGGAGA | 0.302 |
| TCCCAATAAGTTAACGAGA | 0.0378 |
| TCCCCCCGAGTTGGGGAGA | 0.0812 |
| TCCCCATAAGTAGTGGAGA | 0.182 |
| TCCCCTATAGTCTGAGAGA | 0.0168 |
| TCCCAATCAGTCATCGAGA | 0.557 |
| TCCCCGGTAGTGGGGGAGA | 0.394 |
| TCCCGACCAGTATGCGAGA | 0.0346 |
| TCCCCGGGAGTGGTTGAGA | 0.19 |
| TCCCGGGGAGTTCTGGAGA | 0.218 |
| TCCCGTTAAGTTAATGAGA | 0.16 |
| TCCCTTGTAGTCAGCGAGA | 0.245 |
| TCCCGCCGAGTCATTGAGA | 0.313 |
| TCCCATTTAGTATACGAGA | 0.33 |
| TCCCTTCTAGTACATGAGA | 0.44 |

| Sequence | TetR repression strength |
| --- | --- |
| TCCCCCGGAGTACGGGAGA | 0.258 |
| TCCCATAGAGTGGAAGAGA | 0.331 |
| TCCCGGAGAGTAGCGGAGA | 0.287 |
| TCCCGCTCAGTAAATGAGA | 0.536 |
| TCCCAAGCAGTTTGTGAGA | 0.104 |
| TCCCATGTAGTGTTCGAGA | 0.0678 |
| TCCCACCCAGTAGGGGAGA | 0.0279 |
| TCCCCTTAAGTGAATGAGA | 0.408 |
| TCCCGAGGAGTGCGTGAGA | 0.182 |
| TCCCATCCAGTAGTGGAGA | 0.0483 |
| TCCCTGCTAGTGGCAGAGA | 0.119 |
| TCCCGGCCAGTGGACGAGA | 0.131 |
| TCCCGGGGAGTGGCCGAGA | 0.236 |
| TCCCCGCAAGTAGGGGAGA | 0.117 |
| TCCCGAGGAGTGTACGAGA | 0.172 |
| TCCCGTGAAGTCAACGAGA | 0.343 |
| TCCCTTCAAGTCTTGGAGA | 0.186 |
| TCCCGAACAGTGAAAGAGA | 0.488 |
| TCCCAAATAGTGTCAGAGA | 0.465 |
| TCCCGAAGAGTTCTCGAGA | 0.15 |
| TCCCTACGAGTGCGCGAGA | 0.408 |
| TCCCCTTAAGTATTTGAGA | 0.333 |
| TCCCGCCGAGTTATCGAGA | 0.306 |
| TCCCAGGCAGTGCAGGAGA | 0.143 |
| TCCCACCCAGTGGGGGAGA | 0.089 |
| TCCCGATTAGTGAATGAGA | 0.396 |

| Sequence | TetR repression strength |
| --- | --- |
| TCCCTACGAGTCTGTGAGA | 0.326 |
| TCCCACCAAGTAAGTGAGA | 0.148 |
| TCCCTTTAAGTTATCGAGA | 0.604 |
| TCCCCTAAAGTTCAAGAGA | 0.462 |
| TCCCTGTAAGTTAGCGAGA | 0.293 |
| TCCCCATCAGTACGCGAGA | 0.113 |
| TCCCTTCTAGTCCTCGAGA | 0.421 |
| TCCCGGGAAGTGTATGAGA | 0.188 |
| TCCCATACAGTTATTGAGA | 0.256 |
| TCCCCTGCAGTCGGTGAGA | 0.283 |
| TCCCGACTAGTTCGCGAGA | 0.367 |
| TCCCGATGAGTAAGGGAGA | 0.263 |
| TCCCAGGAAGTTTCCGAGA | 0.136 |
| TCCCTTCGAGTATACGAGA | 0.443 |
| TCCCAAGGAGTGTCTGAGA | 0.207 |
| TCCCGCCCAGTCCGTGAGA | 0.622 |
| TCCCCTATAGTATTGGAGA | 0.0207 |
| TCCCAGTTAGTGGTAGAGA | 0.382 |
| TCCCAGCCAGTTATGGAGA | 0.169 |
| TCCCGCATAGTGGACGAGA | 0.1 |
| TCCCGGGAAGTGGCTGAGA | 0.27 |
| TCCCCTCTAGTAAGCGAGA | 0.41 |
| TCCCTGTCAGTGCCAGAGA | 0.324 |
| TCCCGATAAGTATGAGAGA | 0.226 |
| TCCCGGGGAGTGGCGGAGA | 0.226 |
| TCCCAATGAGTAATGGAGA | 0.232 |

| Sequence | TetR repression strength |
| --- | --- |
| TCCCTGTGAGTGGACGAGA | 0.227 |
| TCCCCGTGAGTTCCTGAGA | 0.627 |
| TCCCTAGGAGTGGTGGAGA | 0.322 |
| TCCCAAACAGTTGAAGAGA | 0.482 |
| TCCCTGCTAGTAGCCGAGA | 0.155 |
| TCCCCTCTAGTTCATGAGA | 0.355 |
| TCCCTGCAAGTGTAGGAGA | 0.104 |
| TCCCGGAGAGTCTAGGAGA | 0.327 |
| TCCCCCCTAGTATAGGAGA | 0.204 |
| TCCCTGGTAGTGTAGGAGA | 0.142 |
| TCCCCATGAGTGGAAGAGA | 0.329 |
| TCCCGCACAGTTCTAGAGA | 0.426 |
| TCCCCGCTAGTACGGGAGA | 0.197 |
| TCCCAGGTAGTTCGAGAGA | 0.101 |
| TCCCGGGGAGTTGGGGAGA | 0.257 |
| TCCCATGCAGTGATTGAGA | 0.27 |
| TCCCGTCTAGTAACAGAGA | 0.0213 |
| TCCCGCTTAGTATAAGAGA | 0.531 |
| TCCCAGATAGTGCAAGAGA | 0.108 |
| TCCCCAATAGTACGTGAGA | 0.204 |
| TCCCTATCAGTCATTGAGA | 0.708 |
| TCCCGGACAGTCGTCGAGA | 0.892 |
| TCCCAGGGAGTCGAAGAGA | 0.18 |
| TCCCATACAGTTGTAGAGA | 0.337 |
| TCCCTCGTAGTGTCAGAGA | 0.622 |
| TCCCATTTAGTTTTGGAGA | 0.175 |

| Sequence | TetR repression strength |
| --- | --- |
| TCCCCCGCAGTTGGAGAGA | 0 |
| TCCCACCAAGTTGCGGAGA | 0 |
| TCCCTAGCAGTGAACGAGA | 0.543 |
| TCCCTTCGAGTGGCCGAGA | 0.368 |
| TCCCTGCAAGTGTTAGAGA | 0.272 |
| TCCCTCGTAGTTGCAGAGA | 0.117 |
| TCCCGCAAAGTACGCGAGA | 0.236 |
| TCCCGTTTAGTCTGGGAGA | 0.282 |
| TCCCTGACAGTCGAGGAGA | 0.199 |
| TCCCATCAAGTCGGGGAGA | 0.108 |
| TCCCTAGTAGTCAACGAGA | 0.322 |
| TCCCTAGGAGTGTGCGAGA | 0.369 |
| TCCCGCGGAGTTGGAGAGA | 0.161 |
| TCCCAAACAGTTGATGAGA | 0.409 |
| TCCCCAGGAGTTAAGGAGA | 0.0285 |
| TCCCAGTTAGTGTCTGAGA | 0.057 |
| TCCCAGGTAGTAGGCGAGA | 0.297 |
| TCCCTAGAAGTGTGGGAGA | 0.0851 |
| TCCCTGCTAGTGTAAGAGA | 0.104 |
| TCCCTCTTAGTCACAGAGA | 0.546 |
| TCCCGATCAGTGCTCGAGA | 0.497 |
| TCCCCTGTAGTGGGCGAGA | 0.245 |
| TCCCCGTAAGTGCGGGAGA | 0.0648 |
| TCCCAAGTAGTCCACGAGA | 0.139 |
| TCCCCGTGAGTGTAGGAGA | 0.204 |
| TCCCGGTTAGTGGGCGAGA | 0.35 |
